Assay results published in publication PMC4336329 (PLoS ONE, 2015).
In all, about 310,000 compounds went through this assay and about 14,000 (4.5%) showed an effect of 50% or more. The effect is printed as a negative number. This is one part of the list.

These molecules were tested against human ether-à-go-go-related gene (hERG) potassium channel (human, UniProt Q12809) (assay: primary screen, population patch clamp on CHO cells stably expressing hERG).
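Also: peak tail current of the secondary pulse compared with the same well before compound.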

Sequence of human ether-à-go-go-related gene (hERG) potassium channel (Q12809 whole entry, looked up): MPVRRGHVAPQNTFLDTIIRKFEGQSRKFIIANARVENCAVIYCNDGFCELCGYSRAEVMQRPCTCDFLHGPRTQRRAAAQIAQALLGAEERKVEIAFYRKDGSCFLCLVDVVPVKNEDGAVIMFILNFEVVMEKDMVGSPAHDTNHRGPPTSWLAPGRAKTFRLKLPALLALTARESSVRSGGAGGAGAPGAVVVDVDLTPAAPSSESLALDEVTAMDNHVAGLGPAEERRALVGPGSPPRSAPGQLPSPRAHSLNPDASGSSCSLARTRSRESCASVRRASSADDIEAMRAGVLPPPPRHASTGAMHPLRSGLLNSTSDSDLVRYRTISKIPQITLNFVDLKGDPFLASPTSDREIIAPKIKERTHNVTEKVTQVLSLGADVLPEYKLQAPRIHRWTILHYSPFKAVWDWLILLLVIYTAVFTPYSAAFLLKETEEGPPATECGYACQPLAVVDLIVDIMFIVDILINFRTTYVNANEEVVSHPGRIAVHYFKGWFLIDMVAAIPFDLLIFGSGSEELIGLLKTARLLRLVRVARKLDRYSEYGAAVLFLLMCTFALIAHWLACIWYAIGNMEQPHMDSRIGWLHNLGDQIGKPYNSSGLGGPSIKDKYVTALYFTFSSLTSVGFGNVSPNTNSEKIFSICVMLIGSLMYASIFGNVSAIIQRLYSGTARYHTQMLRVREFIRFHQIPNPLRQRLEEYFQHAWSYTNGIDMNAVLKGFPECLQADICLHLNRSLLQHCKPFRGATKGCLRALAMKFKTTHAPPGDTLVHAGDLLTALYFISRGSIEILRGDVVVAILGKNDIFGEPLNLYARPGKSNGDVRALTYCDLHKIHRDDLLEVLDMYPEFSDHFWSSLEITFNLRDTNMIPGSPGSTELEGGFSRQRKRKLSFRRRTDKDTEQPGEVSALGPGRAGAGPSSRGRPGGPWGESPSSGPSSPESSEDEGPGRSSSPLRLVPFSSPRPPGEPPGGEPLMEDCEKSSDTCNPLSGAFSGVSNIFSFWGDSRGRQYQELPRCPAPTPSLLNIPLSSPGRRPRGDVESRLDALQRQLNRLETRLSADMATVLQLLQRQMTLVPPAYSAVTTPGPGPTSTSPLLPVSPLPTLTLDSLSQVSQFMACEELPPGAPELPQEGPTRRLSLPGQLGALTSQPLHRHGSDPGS

SMILES	hERG current change (%, negative = inhibition) at 10uM [%]
CCCSC(=S)NC1CCS(=O)(=O)C1 (centres unmarked)	2.53
O=C(NCc1ccc(F)cc1)C(Cc1ccccc1)NS(=O)(=O)c1cccs1 (centres unmarked)	11.3
Cc1ccccc1Nc1c(-c2ccccn2)nc2c(C)cccn12	-8.27
C=CCOc1ccc(/C=C2/C(=O)ON=C2C)cc1OC	23.7
COc1ccc(C(=O)O)cc1N1C(=O)Nc2ccccc2N1O	2.73
COc1ccccc1C1CCN(Cc2ccc(C)cc2)CC1	-90
C=C(C)CN1C(=O)C2(OCCO2)c2cc(Br)ccc21	-8.14
CCOC(=O)C1=C(C)NC(C)=C(C(=O)OC)C1c1ccco1 (centres unmarked)	2.06
NC(=O)c1ccsc1NC(=O)C1CCCN1S(=O)(=O)c1ccc(Cl)cc1 (centres unmarked)	-47.7
COc1ccc(CN(CCC(c2ccc(F)cc2)C2CCOC(C)(C)C2)C(=O)c2ccco2)cc1 (centres unmarked)	-52.1
COC(=O)c1cn(C(=O)c2ccc(C)cc2)c2ccccc12	3.42
CCCONC(=O)Nc1ccccc1[N+](=O)[O-]	12.5
COc1ccc(-n2c(SCC(=O)Nc3cc(C)on3)nc3c([nH]c4ccccc43)c2=O)cc1OC	5.65
CCCCN(C(=O)c1cc(=O)[nH]c2ccccc12)c1c(N)n(CCC)c(=O)[nH]c1=O	-6.04
COc1ccc(NC2CCCN(C(=O)c3cccnc3)C2)cc1 (centres unmarked)	14.8
O=C(Nc1cccn(Cc2c(F)cccc2Cl)c1=O)NC1CCCCC1	11.3
Cc1ccc(N2CCN(C(=O)N3CCCC3)CC2)cc1Cl	12.9
CCc1ccc(NC(=O)C(C)Sc2nc(-c3ccco3)c(C#N)c(=O)[nH]2)cc1 (centres unmarked)	32.3
COCCOC(=O)c1c(NC(=O)CN(C)c2ccccc2)sc(C(N)=O)c1C	-3.23
COc1ccc(NC(=O)CCC(=O)Nc2nnc(CC(C)C)s2)cc1Cl	20
COc1ccc(NC(=O)C2CCN(S(=O)(=O)c3ccc(OC)c(OC)c3)CC2)cc1	5.79
Cc1cc(=O)oc2c3c(cc(OCC(=O)NC4CC4)c12)OC(C)(C)CC3	9.68

SMILES	hERG current change (%, negative = inhibition) at 10uM [%]
COc1cccc(C(=O)C2CCCN(Cc3cccc(-n4cccn4)c3)C2)c1 (centres unmarked)	-64.5
O=[N+]([O-])c1cccc(CSc2nnc(Cc3ccccc3)n2-c2ccc(F)cc2)c1	-23.7
CCc1nc2nc(C)c(NS(=O)(=O)c3cccs3)c(=O)n2[nH]1	15.1
COc1ccc(NC(=O)Cn2c([N+](=O)[O-])cnc2C)cc1Cl	11.1
CC(C)[C@H](NC(=O)C1CCN(S(=O)(=O)c2ccc(F)cc2)CC1)C(=O)N1CCCC1	17.3
O=C(Nc1ncccn1)C1=C(O)c2ccccc2S(=O)(=O)N1Cc1ccccc1	22.8
Cc1cc(C)c(S(=O)(=O)Nc2cccnc2)c(C)c1	6.23
CCn1cc(C(=O)O)c(=O)c2cc(F)c(N3CCN(C(=S)NC(=O)c4ccccc4Br)CC3)cc21	17.6
Cc1ccc(C(=O)CCC(=O)OCC(=O)Nc2c(C)nn(-c3ccccc3)c2C)cc1	5.58
Cc1cc(Cl)c(S(=O)(=O)N2CCCCCC2)cc1OCC(=O)NC1CCCCC1	-18.6
CCCc1nnc(NC(=O)CNc2ccc(F)cc2)s1	-0.23
O=S(=O)(c1ccc(Cl)cc1)n1c(Cc2ccccc2)nc2ccccc21	0.437
CC(Oc1ccc(Cl)cc1Cl)C(=O)Nc1ccc2oc(-c3ccncc3)nc2c1 (centres unmarked)	0.0653
Cc1ccc2nc(-c3ccc(O)cc3)c(Nc3ccc4c(c3)OCCO4)n2c1	0.511
Cc1ccc(NC(=O)c2cnn(-c3ccccc3)c2C)cc1C	-2.19
CC(=O)Nc1ccc(C(=O)N/C(=C\c2ccccc2)C(=O)Nc2cccc(C(=O)O)c2)cc1	3.67
CC(C)CN(C(=O)C(C)N1C(=O)c2ccccc2C1=O)c1c(N)n(Cc2ccccc2)c(=O)[nH]c1=O (centres unmarked)	1.96
CC(=O)Nc1ccc(NC(=O)CCSCCc2ccccn2)cc1	23.5
O=C(COC(=O)CNC(=O)c1ccccc1Cl)Nc1cc(C(F)(F)F)ccc1Cl	-17.8
CN(Cc1cccnc1)Cc1c(C(=O)N2CCc3ccccc3C2)nc2ccc(Cl)cn12	-20.1
CCc1ccc(N2C(=O)c3sc4nnc(C)c(=O)n4c3C2=O)cc1	-27.4
Cc1cccc(CC2S/C(=N/N=C/c3ccco3)N(c3ccccc3)C2=O)c1 (centres unmarked)	-3.69

SMILES	hERG current change (%, negative = inhibition) at 10uM [%]
COc1cc(OC)c(C(=O)Nc2ccc(S(=O)(=O)N3CCCCC3)cc2)cc1OC	0.0248
Cc1cc(Nc2ccccc2Br)n2nc(C)nc2n1	10.3
COc1ccc(N2CCN(C(=S)Nc3cccc(OC)c3)CC2)cc1	0.525
CCCN(CC(=O)Nc1ccc(F)c(F)c1F)C(=O)c1ccc2c(=O)n3c(nc2c1)CCC3	-5.21
O=C(Nc1nc2ccc(S(=O)(=O)N3CCCC3)cc2s1)C1CCCCC1	4.81
CC(C)OP(=O)(CCP(=O)(OC(C)C)OC(C)C)OC(C)C	17.9
CCOC(=O)c1cc(-c2ccccc2)sc1NC(=O)CN1C(=O)NC(CC)(c2ccccc2)C1=O (centres unmarked)	0.134
CN1/C(=N\O)c2cccc3cccc1c23	0.693
Cc1c(Cl)cccc1NC(=S)/C(=C(\[O-])c1ccc(Cl)s1)[n+]1ccccc1	3.76
CC(O)CNCCOc1cccc(Oc2ccccc2)c1.O=C(O)C(=O)O (centres unmarked)	-18.1
Cc1cc(Oc2ccccc2)nc(-c2ccccc2)n1	-4.18
Cc1[nH]ccc(=O)c1OC1OC(CO)C(O)C(O)C1O (centres unmarked)	16.6
CCCCCC(O)(c1ccc(OC)cc1)C(CN1CCOCC1)c1ccccc1.Cl (centres unmarked)	7.74
CCc1ccc(NC(=O)CN(C)S(=O)(=O)c2ccc3[nH]c(=O)oc3c2)cc1	8.73
O=C(O)C(=O)O.O=C(c1ccc(F)cc1)N1CCN(C2CCC(c3ccccc3)CC2)CC1 (centres unmarked)	-76
CCCNC(=O)c1c(NC(=O)C2COc3ccccc3O2)sc2c1CCCC2 (centres unmarked)	1.77
COc1ccccc1CNC(=O)c1cc(S(=O)(=O)N2CCCCC2)c[nH]1	-6.24
CCN(CC(=O)Nc1c(F)cccc1F)C(=O)CCCc1nc2ccccc2c(=O)[nH]1	20.1
Cc1cc(C)n(-c2cc(N3CCN(S(=O)(=O)c4ccc(Cl)cc4)CC3)ccc2[N+](=O)[O-])n1	-32.8
O=S1(=O)CCC(NS(=O)(=O)c2ccc3ccccc3c2)C1 (centres unmarked)	11.1
CCN(CC(=O)Nc1c(F)cccc1F)C(=O)CNC(=O)COc1ccccc1	-2.62
CC(=O)c1ccc(OCc2cc(C(=O)NCC3CCCCO3)no2)cc1 (centres unmarked)	8.13

SMILES	hERG current change (%, negative = inhibition) at 10uM [%]
CCn1cc(C(=O)NCCN(C)CCc2ccccc2)c(=O)c2cc(S(=O)(=O)N(C)C)ccc21	-43.5
CC(CCl)OC(C)CCl (centres unmarked)	14.4
CCn1cc(CN2CCC(n3nccc3NC(=O)C3CCCC3)CC2)cn1	-6.15
CCOc1ccc(NC(=O)CN(C)C(=O)CN2C(=O)C3CC=CCC3C2=O)cc1OCC (centres unmarked)	13.9
CCOC(=O)c1sc(N=NC2=C(O)CC(C)(C)CC2=O)c(C(=O)OCC)c1C	-15.4
CN(c1ccc(C(=O)NCc2ccncc2)cc1)S(=O)(=O)c1ccc(Cl)cc1	-52.1
O=c1[nH]c2ccccc2c(=O)n1Cc1ccco1	-6.52
O=C1CN(C(=O)c2ccccc2F)C(c2ccc(F)cc2)c2cc(Br)ccc2N1 (centres unmarked)	-23
CNC(=S)NNC(=O)c1sc(-c2cc(C)on2)nc1C	18
NNC(=O)CSc1cccc2cccnc12	9.09
COc1ccc(NS(=O)(=O)c2ccc(NC(=S)NC(=O)C(C)C)cc2)cc1	-2.92
C=CCc1ccc(OC(=O)NC2CCCCC2)c(OC)c1	-6.38
O=C(NC1CCCC1)c1cc(-c2cccc(Cl)c2)on1	5.93
COc1cc(CCC(=O)OCC(=O)Nc2ccc(F)c(F)c2)cc(OC)c1OC	-26.6
Cn1c(CN2CCOCC2)nc2cc(NC(=O)c3ccc(F)cc3)ccc21	-12.5
COc1ccc(C(=O)OCC(=O)NC2CCCCCC2)cc1OC	1.94
Cc1cnc(C(=O)OC(C)C(=O)Nc2cccc3ccccc23)cn1 (centres unmarked)	16.7
O=C(CNC(=O)C1CC(=O)N(c2cccc3ccccc23)C1)Nc1ccccc1Br (centres unmarked)	-9.51
Cn1c(SCC(=O)NC2CC2)nnc1-c1ccccc1Cl	12.1
CC(c1ccc(F)cc1)n1cc(S(=O)(=O)N2CCCC2)ccc1=O (centres unmarked)	-14.7
